This note sets out measurements from patent US20230287109A1 (INGENIA THERAPEUTICS, published 2023).

Test [1] has as its target T1, Mouse monomeric Tie2 (Tie2-Ig3-FNIII(1-3)) (mouse, UniProt Q02858 349-737).
T1 sequence: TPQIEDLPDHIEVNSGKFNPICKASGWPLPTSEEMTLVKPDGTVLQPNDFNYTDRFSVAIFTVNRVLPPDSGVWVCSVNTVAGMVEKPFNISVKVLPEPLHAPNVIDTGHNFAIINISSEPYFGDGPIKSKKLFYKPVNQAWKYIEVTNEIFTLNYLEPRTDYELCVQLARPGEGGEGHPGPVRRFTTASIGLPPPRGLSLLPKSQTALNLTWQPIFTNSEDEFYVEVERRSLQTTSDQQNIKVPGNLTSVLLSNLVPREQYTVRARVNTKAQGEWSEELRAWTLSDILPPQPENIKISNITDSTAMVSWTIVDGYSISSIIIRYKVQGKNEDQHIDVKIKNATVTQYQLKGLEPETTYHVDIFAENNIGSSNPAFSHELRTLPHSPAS
Description: SPR (Biacore 3000), Tie2 immobilised on CM5, IGT-427 injected, 1:1 Langmuir fit. A general note: Surface plasmon resonance follows binding to a sensor surface in real time, without labels.

Test [2] addresses T2, Rabbit monomeric Tie2 (Tie2-Ig3-FNIII(1-3)) (rabbit, UniProt Q02763 349-738 (human entry), limits assumed).
T2 chain: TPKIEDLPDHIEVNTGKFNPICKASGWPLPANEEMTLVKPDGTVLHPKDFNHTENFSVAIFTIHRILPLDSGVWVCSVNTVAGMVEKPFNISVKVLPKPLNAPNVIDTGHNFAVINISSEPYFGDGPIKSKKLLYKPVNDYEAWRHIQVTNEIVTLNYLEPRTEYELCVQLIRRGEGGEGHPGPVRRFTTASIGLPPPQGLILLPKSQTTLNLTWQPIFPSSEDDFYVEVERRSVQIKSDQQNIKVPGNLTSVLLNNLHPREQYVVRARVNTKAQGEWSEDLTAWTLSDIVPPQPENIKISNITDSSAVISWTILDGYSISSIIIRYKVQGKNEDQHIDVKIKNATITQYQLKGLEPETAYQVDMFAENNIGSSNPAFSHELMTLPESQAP
The test is described as above.

Test [3] addresses T3, Human dimeric Tie2 (Tie2-Ig3-FNIII(1-3)-mouse IgG1 Fc fusion) (human; mouse, UniProt Q02763 349-738).
T3 construct: IL2 signal peptide of the vector is left out; also called human Tie2-Fc fusion protein; not shown: mouse IgG1 Fc of the pFuse-mouse IgG1 Fc2 vector
The test is described as above.

In test [4] the target is T4, Rabbit dimeric Tie2 (Tie2-Ig3-FNIII(1-3)-mouse IgG1 Fc fusion) (rabbit; mouse, UniProt Q02763 349-738, limits assumed).
T4 construct: also called rabbit Tie2-Fc fusion protein; not shown: mouse IgG1 Fc of the pFuse-mouse IgG1 Fc2 vector
T4 chain: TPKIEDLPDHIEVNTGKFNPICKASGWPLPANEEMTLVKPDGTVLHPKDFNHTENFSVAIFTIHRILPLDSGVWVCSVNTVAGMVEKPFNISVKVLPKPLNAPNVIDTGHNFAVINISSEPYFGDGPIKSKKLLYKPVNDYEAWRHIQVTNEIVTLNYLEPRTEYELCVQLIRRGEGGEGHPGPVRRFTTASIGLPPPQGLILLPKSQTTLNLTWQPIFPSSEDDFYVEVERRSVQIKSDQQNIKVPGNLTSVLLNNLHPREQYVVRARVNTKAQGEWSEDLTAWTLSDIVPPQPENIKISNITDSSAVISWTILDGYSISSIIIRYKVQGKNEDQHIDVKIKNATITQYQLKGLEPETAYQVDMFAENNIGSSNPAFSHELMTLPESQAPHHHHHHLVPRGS
The description is as above.

The target of test [5] is Human monomeric Tie2 (Tie2-Ig3-FNIII(1-3)) (human, UniProt Q02763 349-738). The description is as above.
The target in test [6] is T5, Mouse dimeric Tie2 (Tie2-Ig3-FNIII(1-3)-mouse IgG1 Fc fusion) (mouse, UniProt Q02858 349-737).
T5 construct: also called mouse Tie2-Fc fusion protein; not shown: mouse IgG1 Fc of the pFuse-mouse IgG1 Fc2 vector
T5 sequence: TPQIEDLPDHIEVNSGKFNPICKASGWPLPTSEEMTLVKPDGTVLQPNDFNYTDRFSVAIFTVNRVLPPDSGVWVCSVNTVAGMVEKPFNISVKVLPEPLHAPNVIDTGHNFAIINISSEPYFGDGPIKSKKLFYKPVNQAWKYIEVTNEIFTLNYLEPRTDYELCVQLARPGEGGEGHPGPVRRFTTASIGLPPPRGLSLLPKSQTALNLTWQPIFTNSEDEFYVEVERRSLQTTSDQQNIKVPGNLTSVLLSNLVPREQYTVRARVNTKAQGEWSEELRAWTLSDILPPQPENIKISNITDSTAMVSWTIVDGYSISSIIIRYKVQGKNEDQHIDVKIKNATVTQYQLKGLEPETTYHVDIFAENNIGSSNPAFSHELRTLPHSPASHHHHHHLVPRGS
Described as above.

For the next test, the target named is T6, recombinant human VEGF (human, UniProt P15692-4 27-191, limits assumed).
T6 sequence (looked up): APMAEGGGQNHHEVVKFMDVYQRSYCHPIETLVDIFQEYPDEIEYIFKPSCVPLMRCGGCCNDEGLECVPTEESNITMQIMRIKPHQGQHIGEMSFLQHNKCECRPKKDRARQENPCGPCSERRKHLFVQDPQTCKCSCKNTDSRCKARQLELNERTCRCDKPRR
Nature of the test: cell-based or functional assay.

The target in test [7] is T7, rabbit Tie2 (form not stated) (rabbit).
T7 construct: also called rabbit ortholog of Tie-2
Nature of the test: SPR, summary table, column Rabbit Tie2, Kd [M].

A value given as a limit tells only on which side of the number the result lay.

B1: IGT-427 (Fc fusion)
heavy: EVQLVQSGAEVKKPGASVKVSCKASGYSFTSYWMNWVRQAPGQGLEWMGMIHPSDSETRLNQKFMDRVTMTRDTSTSTVYMELSSLRSEDTAVYYCARGLYGNSWGQGTLVTVSSASTKGPSVFPLAPSSKSTSGGTAALGCLVKDYFPEPVTVSWNSGALTSGVHTFPAVLQSSGLYSLSSVVTVPSSSLGTQTYICNVNHKPSNTKVDKKV[sequence of human IgG1 Fc with L234A L235A H310A (EU numbers) not given]GGGGSGGGGSGGGGSGGGGSSDTGRPFVEMYSEIPEIIHMTEGRELVIPCRVTSPNITVTLKKFPLDTLIPDGKRIIWDSRKGFIISNATYKEIGLLTCEATVNGHLYKTNYLTHRQTNTIIDVVLSPSHGIELSVGEKLVLNCTARTELNVGIDFNWEYPSSKHQHKKLVNRDLKTQSGSEMKKFLSTLTIDGVTRSDQGLYTCAASSGLMTKKNSTFVRVHEK
light: DIQMTQSPSSLSASVGDRVTITCRASQDIGISLNWYQQEPGKAIKRLIYATSSLDSGVPKRFSGSRSGTEYTLTISSLESEDFADYYCLQYASSPYTFGGGTKLEIKRTVAAPSVFIFPPSDEQLKSGTASVVCLLNNFYPREAKVQWKVDNALQSGNSQESVTEQDSKDSTYSLSSTLTLSKADYEKHKVYACEVTHQGLSSPVTKSFNRGEC
notes: Anti-Tie2 antibody with a VEGF trap fused to the C-terminus of each heavy chain; also called ITP-016
For B1, the dissociation constant Kd in test [1] turned out to be 3.62 nM; in test [2], 0.393 nM; in test [3], 0.442 nM; in test [4] it was 0.532 nM; in test [5] it was 0.25 nM; in test [6] it was 3.46 nM. The same molecule registered a Kd in test [7] of under 0.0642 nM. Also, the off-rate (koff) was found to be 0.000433 s⁻¹ in test [1]; 6.49e-05 s⁻¹ in test [2]; 4.7e-05 s⁻¹ in test [3]; 6.82e-05 s⁻¹ in test [4]; 4e-05 s⁻¹ in test [5]; 0.000307 s⁻¹ in test [6]. Moreover, the on-rate constant (kon) in test [2] was determined as 165000 M⁻¹ s⁻¹; in test [3], 106000 M⁻¹ s⁻¹; in test [4] it was 128000 M⁻¹ s⁻¹; in test [5], 159000 M⁻¹ s⁻¹; in test [6], 88700 M⁻¹ s⁻¹. In the test with recombinant human VEGF, the “IC50, VEGF reporter assay (KDR/NFAT-RE HEK293 cells, luminescence)” value is about 0.48 nM.

For orientation: Kd means the concentration at which binding is half-saturated. What is called koff is the rate constant with which the complex falls apart. High values mean fast dissociation, low ones slow dissociation. A word on the kon: it is the rate constant with which the complex forms. Higher therefore signals faster complex formation.
